# Measurements taken from PMC10944813.
# Chains of the proteins cited; added tags and fusions are not shown.
# UniProt P46937: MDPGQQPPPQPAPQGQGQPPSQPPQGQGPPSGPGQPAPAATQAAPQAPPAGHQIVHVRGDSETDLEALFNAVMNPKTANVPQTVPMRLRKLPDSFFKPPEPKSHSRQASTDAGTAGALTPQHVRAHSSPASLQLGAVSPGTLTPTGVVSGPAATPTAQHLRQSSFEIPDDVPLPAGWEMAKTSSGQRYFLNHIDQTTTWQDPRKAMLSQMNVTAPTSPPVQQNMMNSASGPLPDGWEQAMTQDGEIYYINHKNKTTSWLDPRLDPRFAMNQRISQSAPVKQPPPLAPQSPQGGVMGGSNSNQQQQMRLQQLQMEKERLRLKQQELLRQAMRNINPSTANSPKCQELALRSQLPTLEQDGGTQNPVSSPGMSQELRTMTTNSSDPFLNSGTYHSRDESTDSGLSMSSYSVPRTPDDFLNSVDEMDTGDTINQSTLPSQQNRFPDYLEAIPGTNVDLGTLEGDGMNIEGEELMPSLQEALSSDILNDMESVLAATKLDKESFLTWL
# UniProt O75131: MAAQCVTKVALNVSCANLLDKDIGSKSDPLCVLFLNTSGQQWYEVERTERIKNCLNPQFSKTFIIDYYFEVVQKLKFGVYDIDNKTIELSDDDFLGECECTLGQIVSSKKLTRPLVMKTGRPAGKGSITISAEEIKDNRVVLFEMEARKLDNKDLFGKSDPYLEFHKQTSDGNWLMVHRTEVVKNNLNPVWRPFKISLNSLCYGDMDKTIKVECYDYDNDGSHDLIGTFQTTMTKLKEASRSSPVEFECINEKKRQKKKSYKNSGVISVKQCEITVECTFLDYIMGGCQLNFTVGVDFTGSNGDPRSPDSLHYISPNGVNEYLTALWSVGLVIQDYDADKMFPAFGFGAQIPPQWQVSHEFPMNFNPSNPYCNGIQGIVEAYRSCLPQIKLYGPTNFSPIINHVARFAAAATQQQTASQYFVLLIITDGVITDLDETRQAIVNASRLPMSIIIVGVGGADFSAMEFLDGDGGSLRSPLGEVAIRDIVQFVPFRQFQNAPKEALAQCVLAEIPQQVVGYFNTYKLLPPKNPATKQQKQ
# UniProt Q9Y297: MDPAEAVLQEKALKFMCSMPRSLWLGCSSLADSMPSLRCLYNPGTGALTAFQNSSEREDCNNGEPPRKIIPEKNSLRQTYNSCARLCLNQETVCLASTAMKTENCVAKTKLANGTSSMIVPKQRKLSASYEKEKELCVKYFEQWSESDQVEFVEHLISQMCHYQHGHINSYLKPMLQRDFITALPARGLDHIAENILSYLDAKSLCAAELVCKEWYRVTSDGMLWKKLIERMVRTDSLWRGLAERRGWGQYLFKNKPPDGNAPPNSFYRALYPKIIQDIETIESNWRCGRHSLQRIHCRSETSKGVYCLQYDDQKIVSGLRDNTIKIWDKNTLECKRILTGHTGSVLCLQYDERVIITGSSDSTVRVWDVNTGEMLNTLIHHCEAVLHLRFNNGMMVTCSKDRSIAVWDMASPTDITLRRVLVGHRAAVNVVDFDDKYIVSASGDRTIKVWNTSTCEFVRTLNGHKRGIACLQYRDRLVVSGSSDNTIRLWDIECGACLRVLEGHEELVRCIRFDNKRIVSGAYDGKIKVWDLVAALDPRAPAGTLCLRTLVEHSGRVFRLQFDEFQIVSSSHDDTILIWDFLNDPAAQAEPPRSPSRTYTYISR
# Results are given in words; binding and its absence hold for the method and conditions named. For part of these data: Binding seen in cells or lysates may run through a third protein. Some entries that bind do so weakly or less than the wild type.
# Tests used:
# [1] = target: Flag-YAP1 (Yes-associated protein 1) (UniProt P46937); test: co-IP; exogenous Co-IP; Flag-YAP1 and HA-CPNE3 plasmids co-transfected into HEK-293 T and BGC-823 cells; lysates incubated with anti-Flag or anti-HA beads
# GST-YAP1 fusion protein = GST-YAP1 fusion protein (UniProt P46937); test: pull-down; GST pull-down; GST-YAP1 fusion protein or GST-control on GST-agarose beads with purified His-tagged CPNE3; three washes with GST lysis buffer; western blot; both purified
# [2] = target: endogenous YAP1 (Yes-associated protein 1) (human (endogenous in BGC-823)) (UniProt P46937); test: co-IP; endogenous Co-IP in BGC-823 cells; lysates immunoprecipitated with anti-CPNE3 or anti-YAP1 polyclonal antibodies
# [3] = target: endogenous YAP1 (Yes-associated protein 1) (human (endogenous in BGC-823)) (UniProt P46937); test: condition: only nuclear protein lysate of BGC-823 cells; co-IP; endogenous Co-IP in the nuclear protein lysate of BGC-823 cells
# [4] = target: endogenous YAP1 (Yes-associated protein 1) (human (endogenous in BGC-823)) (UniProt P46937); test: co-IP; endogenous Co-IP in the cytoplasmic protein lysate of BGC-823 cells
# [5] = target: Flag-YAP1 (Yes-associated protein 1) (UniProt P46937); test: co-IP; HEK-293 T cells transfected with HA-CPNE3, Flag-YAP1 and myc-β-TRCP plasmids; CPNE3 overexpressed or down-regulated
substance,measurement,setting,value
HA-CPNE3 (Copine III) (from UniProt O75131 1-537),binding,[1],binds
His-tagged CPNE3 (from UniProt O75131 1-537),binding,GST-YAP1 fusion protein,binds
endogenous CPNE3 (Copine III) (from UniProt O75131 1-537),binding,[2],binds
same,binding,[3],no binding
same,binding,[4],binds
myc-β-TRCP (β-transducin repeat-containing protein) (from UniProt Q9Y297 1-605),binding,[5],binds
